# Experimental data from PubChem BioAssay AID1671193 (National Center for Advancing Translational Sciences (NCATS), 2021).
# Among all 150,000 compounds or so, about 180 (0.12%) were called active. The shares of active, inactive and inconclusive entries below differ from those in the screen. The call rests on the fitted dose curve; in most records, active means well fitted cell-killing curve with a large enough effect; inconclusive means small, poorly fitted or top-dose-only effect, or effect the other way; inactive means flat fitted curve, though single readings scatter. Potencies beside an inconclusive call are fits to weak or partial responses and may not hold up.
# Experiment: GF-AFC viability counterscreen for inhibitors of alpha-synuclein gene (SNCA) expression; further: nearly all actives have a fitted effect of over 30% in size
# Conditions: HEK-293-SNCA-luc viability, GF-AFC fluorescence, 24 h; series mostly up to 57.1 µM
# Summary of the method: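 HEK-293-SNCA-luc cells (1500/well) plated 24 h, then exposed 24 h to a dilution series; GF-AFC added 30 min at 37C, fluorescence 405/540 nm; normalised to medium-only and DMSO wells, Hill fit.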
# Potency means the concentration at half of the fitted maximal effect; tags describe the fitted curve by direction and shape.
row,Compound,Potency
1,N#Cc1cccc(-c2c(C(=O)N3CCCCC3)nc3sccn23)c1,inactive
2,COc1cccc(-n2c(=O)c3sc4ccccc4c3n(CC(=O)Nc3cccc(Cl)c3)c2=O)c1,"inconclusive: 0.355 µM [cytotoxic, full curve, poor fit]"
3,CCOc1ccc(CCNC(=O)c2ccc3nc(CC)c(CC)nc3c2)cc1,"inconclusive: 28.2 µM [cytotoxic, single point]"
4,Cc1cccc(CNC(=O)c2ccc3c(c2)N(C)C2CCCCN2C3=O)c1 (stereo unspecified),"inconclusive: 3.98 µM [rising, single point]"
5,O=C(NCc1ccccc1)N1CCC(N2CC3CC(C2)[C@H]2CCCC(=O)N2C3)CC1 (stereo partly specified),"inconclusive: 2.24 µM [cytotoxic, full curve, poor fit]"
6,CSc1nn(Cc2ccc(Br)cc2)c(N(C(C)=O)C(C)=O)c1S(=O)(=O)c1ccccc1,"inconclusive: 6.31 µM [cytotoxic, full curve, poor fit]"
7,CCn1c(CN2CCOCC2)nc2cc(NC(=O)c3cc(OC)c(OC)c(OC)c3)ccc21,inactive
8,Cc1ccc(NC(=O)Cn2ccn3nc4c(c3c2=O)CCCC4)cc1Cl,inactive
9,COc1ccc(C(=O)NC2CCCN(c3cc(-c4ccccc4)[nH]n3)C2)cc1 (stereo unspecified),inactive
10,CCC(C)C(=O)Nc1c(C(=O)OC)n(CC2CCCO2)c2ncc(NC(C)CO)cc12 (stereo unspecified),inactive
11,CC1CCN(CCNC(=O)c2ccc(Cn3c(SCc4ccccc4)nc4cccnc43)cc2)CC1,active: 10 µM
12,COc1ccc(-c2ccccc2NC(=O)C2CCCN(Cc3c(O)cccc3OC)C2)cc1 (stereo unspecified),inactive
13,COc1ccc(C(=O)NCC(=O)N2CCCCCCNC(=O)CC2c2ccccc2)c(OC)c1 (stereo unspecified),"inconclusive: 0.631 µM [cytotoxic, full curve, poor fit]"
14,Cc1ccc(-c2nc(SCc3ccc(Br)cc3)n3[nH]c(=O)cc3n2)cc1,"inconclusive: 39.8 µM [cytotoxic, single point]"
15,COc1cccc(NC(=O)N2CCN(C(=O)c3cccnc3)[C@@H](C(=O)N[C@H]3CCCNC3=O)C2)c1,inactive
16,Cc1ccc(-c2c(C(=O)NCCc3ccc(Cl)cc3)oc(=O)c3ccccc23)cc1,"inconclusive: 7.94 µM [rising, partial curve]"
17,Cc1cccc(N2C(=O)CCSC23C(=O)N(Cc2ccc(F)cc2)c2ccccc23)c1 (stereo unspecified),"inconclusive: 39.8 µM [cytotoxic, single point]"
18,Cc1c(NC(=O)c2ccco2)cccc1C(=O)N1CCC2(CCNCC2)CC1,"inconclusive: 20 µM [cytotoxic, partial curve, poor fit]"
19,COc1cccc(-c2noc(-c3ccc(NCCn4cccn4)nc3)n2)c1OC,"inconclusive: 39.8 µM [cytotoxic, single point]"
20,O=C(Nc1nn(-c2cccc(F)c2)c2cccc(N3CCOC3=O)c12)C1CCC1,inactive
21,COC(=O)Nc1ccc(-c2nc(N3CCOCC3)c3cnn(C4CCN(C(=O)OC)CC4)c3n2)cc1,"inconclusive: 3.41 µM [cytotoxic, full curve, poor fit]"

row,Compound,Potency
1,Cc1ccc(-c2nnc(C3CN(C(=O)c4cccc(Cl)c4)CC34CCOCC4)o2)cc1 (stereo unspecified),"inconclusive: 2.82 µM [cytotoxic, full curve, poor fit]"
2,Cc1csc(Nc2ccc3c(n2)CN(Cc2ccccc2C)C(=O)CO3)n1,"inconclusive: 25.1 µM [cytotoxic, partial curve, poor fit]"
3,COc1ccc(NC(=O)CSC2=Nc3ccccc3C3=NC(Cc4ccccc4)C(=O)N23)cc1 (stereo unspecified),"inconclusive: 7.94 µM [cytotoxic, partial curve]"
4,O=C1C2=C(Nc3ccccc3SC2c2ccc(C(F)(F)F)cc2)c2ccccc21 (stereo unspecified),"inconclusive: 39.8 µM [cytotoxic, single point]"
5,Cc1ccccc1CNC(=O)CCCn1ncn2c(cc3occc32)c1=O,inactive
6,CCN1c2cc(C(=O)NC3CCCC3)ccc2C(=O)N2CCCCCC21 (stereo unspecified),"inconclusive: 2.82 µM [rising, partial curve, poor fit]"
7,CCN(C(=O)c1cc2c(=O)oc3ccccc3c2s1)c1cccc(C(F)(F)F)c1,"inconclusive: 0.1 µM [rising, full curve, poor fit]"
8,COc1ccc(CC(=O)Nc2c(C(=O)N3CCN(c4ccccc4F)CC3)oc3ccccc23)cc1OC,"inconclusive: 12.6 µM [cytotoxic, partial curve, poor fit]"
9,CCn1nccc1C(=O)NCc1cc(C)cc2c(C)c(-c3ccccc3)[nH]c12,"inconclusive: 39.8 µM [cytotoxic, single point]"
10,Cc1nc(-c2ccc(Cl)cc2)n(Cc2ccccc2)c(=O)c1CCO,inactive
11,O=C1CC(c2ccccc2)N(C(=O)CNC(=O)Nc2ccc3c(c2)OCCO3)CCCCCN1 (stereo unspecified),"inconclusive: 2 µM [rising, full curve, poor fit]"
12,COc1cccc(Nc2cc3c(cn2)NCCN(Cc2ccccc2)C3)c1,inactive
13,CCCNC(=O)c1coc(COc2ccc3c(c2)C(c2ccc(F)cc2)N(C(=O)C(C)C)CC3)n1 (stereo unspecified),inactive
14,CCCCCN1C(C(=O)c2ccccc2)=C(NC(=O)c2ccc(OC)c(OC)c2)c2ccccc2S1(=O)=O,"inconclusive: 0.178 µM [cytotoxic, full curve, poor fit]"
15,COc1ccccc1CNS(=O)(=O)c1c(C(=O)N2CCC(C)CC2)c(C)n(C)c1C,"inconclusive: 11.2 µM [cytotoxic, partial curve, poor fit]"
16,Cc1ccc(Cl)cc1-n1c(=O)c2sc3ccccc3c2n(CC(=O)NC2CCCC2)c1=O,"inconclusive: 1.58 µM [cytotoxic, full curve, poor fit]"
17,Cc1ccc(CSC2=Nc3ccccc3C3=NC(CCC(=O)NCCc4ccccc4)C(=O)N23)cc1 (stereo unspecified),"inconclusive: 15.8 µM [cytotoxic, partial curve, poor fit]"
18,COc1ccc(CN2CCNc3cc(Nc4ccccc4)ncc3C2)cn1,"inconclusive: 56.2 µM [cytotoxic, partial curve, poor fit]"
19,Nc1nc2nc(-c3ccc(Cl)cc3)cc(C(F)(F)F)n2n1,"inconclusive: 14.1 µM [rising, partial curve, poor fit]"
20,CC(C)Nc1ccc2nnc(-c3ccc(F)cn3)n2n1,inactive
21,Cc1ccc(S(=O)(=O)N2CCC(OC3CCN(Cc4ccccc4)CC3)CC2)c(C)c1,inactive

row,Compound,Potency
1,O=C(NC1CCCC1)N1CCN(C(=O)c2nc3cccnc3n(CCc3ccccc3)c2=O)CC1,inactive
2,Cc1ccnc(NS(=O)(=O)c2ccc(NC(=O)Nc3ccc(S(=O)(=O)Nc4nccc(C)n4)cc3)cc2)n1,"inconclusive: 1.71 µM [cytotoxic, full curve]"
3,CCN1c2cc(C(=O)Nc3cccc(F)c3)ccc2C(=O)N2CCCCCC21 (stereo unspecified),"inconclusive: 7.08 µM [rising, single point]"
4,COc1ccc(Cn2c(=O)c3oc4ccccc4c3n(Cc3ccccc3)c2=O)cc1,"inconclusive: 3.16 µM [rising, full curve]"
5,CN1CCN(c2ncc3nc(-c4cc(F)cc(F)c4)c(=O)n(-c4ccccc4)c3n2)CC1,"inconclusive: 22.4 µM [rising, partial curve, poor fit]"
6,Cc1cccc(NC(=O)CSc2nc3c(oc4ccccc43)c(=O)n2-c2ccccc2)c1C,"inconclusive: 1 µM [cytotoxic, partial curve, poor fit]"
7,Cc1ccccc1CN1C(=O)c2ccccc2Sc2ccc(C(=O)N3CCOCC3)cc21,"inconclusive: 14.1 µM [cytotoxic, partial curve, poor fit]"
8,CC1CCN(CC(=O)N2CCCc3c2c(=O)oc2ccc(OCc4ccccc4)cc32)CC1,"inconclusive: 39.8 µM [rising, partial curve, poor fit]"
9,COc1cccc(-c2cn3c(n2)N(C(=O)C2CCCO2)CCC3)c1 (stereo unspecified),"inconclusive: 2.24 µM [rising, full curve, poor fit]"
10,COc1ccc(-c2[nH]nc3ncc(-c4ccccc4OC)nc23)c(C)c1,inactive
11,CC(C)C[C@@H]1N[C@H](C(=O)NCC2CC2)Cc2cn(Cc3ccccn3)c3cccc1c23,"inconclusive: 35.5 µM [cytotoxic, partial curve, poor fit]"
12,COc1ccccc1N1CCN(CCCNC(=O)c2cnn(-c3ccccc3Cl)c2C2CCN(C(=O)OC(C)(C)C)CC2)CC1,"inconclusive: 39.8 µM [cytotoxic, single point]"
13,Cc1ccc(C2=NC3(CCN(C(=O)c4cccc(C#N)c4)CC3)ON2)cc1,"inconclusive: 28.2 µM [cytotoxic, single point]"
14,Cc1ccc(C(=O)N2CCC(Oc3ncccc3C(=O)N3CCCCC3)C2)cc1C (stereo unspecified),inactive
15,COc1ccc(OC)c(CNS(=O)(=O)c2c(C(=O)N3CCC(C)CC3)c(C)n(C)c2C)c1,"inconclusive: 17.8 µM [cytotoxic, partial curve, poor fit]"
16,O=C([C@@H]1C[C@H](F)CN1S(=O)(=O)c1ccc(Cl)cc1)N1CCCCC1,"inconclusive: 39.8 µM [cytotoxic, single point]"
17,COc1cccc(Nc2ccc3c(n2)C(C)(C(=O)NCC2CC2)CN(C)C3)c1 (stereo unspecified),"inconclusive: 50.1 µM [cytotoxic, single point]"
18,CC1CCN(S(=O)(=O)c2ccc3c(c2)N(CC(=O)NCc2ccccc2Cl)C(=O)CS3)CC1,"inconclusive: 39.8 µM [cytotoxic, single point]"
19,CCCn1c(=N)c(C(=O)NC2CCCC2)cc2c(=O)n3cc(C)ccc3nc21,"inconclusive: 39.8 µM [rising, partial curve, poor fit]"
